Laboratory results as given in patent publication EP3470429A1 (Numab Innovation AG, dated 2019).

Key:
Assay in all cases: cell-based or functional assay
[1] = target: T1, CD137 on the transgenic NFkB Jurkat reporter cell line (UniProt Q07011 24-255, limits assumed)
[2] = target: T1, CD137 on the transgenic NFkB Jurkat …; remark: listed apart in the source
[3] = target: T1, CD137 on the transgenic NFkB Jurkat …; remark: listed apart in the source
[4] = target: T1, CD137 on the transgenic NFkB Jurkat …; remark: listed apart in the source
[5] = target: T1, CD137 on the transgenic NFkB Jurkat …; remark: listed apart in the source

B1: PRO963 (other)
chain: DIQMTQSPSSLSASVGDRVTITCQASQSINDYLAWYQQKPGKAPKLLIYKASTLASGVPSRFSGSGSGTDFTLTISSLQPEDFATYYCQQGYIITDIDNVFGTGTKVTVLGGGGGSQVQLQESGPGLVKPSETLSLTCKVSGFSFSNSYWICWIRQPPGKGLEWIGCTFVGSSDSTYYANWAKGRVTISVDSSKNQFSLKLSSVTAADTAVYYCARHPSDAVYGYANNLWGQGTLVTVSSGGGGSGGGGSGGGGSGGGGSIQMTQSPSSLSASVGDRVTITCQASQSINNVLAWYQQKPGKAPKLLIYRASTLASGVPSRFSGSGSGTDFTLTISSLQPEDFATYYCQSSYGNYGDFGTGTKVTVLGGGGGSQVQLQESGPGLVKPSETLSLTCKVSGFSFSSGYDMCWIRQPPGKGLEWIGCVVAGSVDITYYASWAKGRVTISVDSSKNQFSLKLSSVTAADTAVYYCARKDAYSDAFNLWGQGTLVTVSSGGGGSGGGGSIQMTQSPSSLSASVGDRVTITCQSSESVYSNNQLSWYQQKPGQPPKLLIYDASDLASGVPSRFSGSGSGTDFTLTISSLQPEDFATYYCAGGFSSSSDTAFGGGTKLTVLGGGGGSGGGGSGGGGSGGGGSEVQLVESGGGLVQPGGSLRLSCAASGFSLSSNAMGWVRQAPGKGLEYIGIISVGGFTYYASWAKGRFTISRDNSKNTVYLQMNSLRAEDTATYFCARDRHGGDSSGAFYLWGQGTLVTVSS
notes: also called PRO1051; 38_02_A04 sc01 scDb-i/33-03-G02 sc01 scDb-o/19-01-H04-sc03 scFv
max. activation (%), NF-kB reporter, CHO-PD-L1, with HSA, 24h [1]: 369%

B2: PRO1057 (other)
chain: DIQMTQSPSSLSASVGDRVTITCQASQSINDYLAWYQQKPGKAPKLLIYKASTLASGVPSRFSGSGSGTDFTLTISSLQPEDFATYYCQQGYIITDIDNVFGTGTKVTVLGGGGGSQVQLQESGPGLVKPSETLSLTCKVSGFSFSNSYWICWIRQPPGKGLEWIGCTFVGSSDSTYYANWAKGRVTISVDSSKNQFSLKLSSVTAADTAVYYCARHPSDAVYGYANNLWGQGTLVTVSSGGGGSGGGGSGGGGSGGGGSIQMTQSPSSLSASVGDRVTITCQASQSINNVLAWYQQKPGKAPKLLIYRASTLASGVPSRFSGSGSGTDFTLTISSLQPEDFATYYCQSSYGNYGDFGTGTKVTVLGGGGGSQVQLQESGPGLVKPSETLSLTCKVSGFSFSSGYDMCWIRQPPGKGLEWIGCVVAGSVDITYYASWAKGRVTISVDSSKNQFSLKLSSVTAADTAVYYCARKDAYSDAFNLWGQGTLVTVSSGGGGSGGGGSVVMTQSPSSLSASVGDRVTITCQASQIISSRSAWYQQKPGQPPKLLIYQASKLASGVPSRFSGSGSGTDFTLTISSLQPEDFATYYCQCTYIDSNFGAFGGGTKLTVLGGGGGSGGGGSGGGGSGGGGSEVQLVESGGGLVQPGGSLRLSCAASGFSFSSSYWICWVRQAPGKGLEWVGCVFTGDGTTYYASWAKGRFTISRDNSKNTVYLQMNSLRAEDTATYFCARPVSVYYYGMDLWGQGTLVTVSS
notes: also called 38_02_A04 sc01 scDb-i/33-03-G02 sc01 scDb-o/mxr HSA (23-13-A01-sc03, sk17sh4)
EC50 in ng/ml, NFkB-Luciferase reporter, PD-L1 expressing CHO cells (6h), + HSA [2]: 112 ng/mL
EC50 in ng/ml, NFkB-Luciferase reporter, PD-L1 expressing CHO cells (24h), + HSA [3]: 792 ng/mL
EC50 in ng/ml, NFkB-Luciferase reporter, HCC827 with IFNy stimulation, +HSA [4]: 115 ng/mL
EC50 in ng/ml, NFkB-Luciferase reporter, HCC827 without IFNy stimulation, +HSA [4]: 76.6 ng/mL
max. activation (%), NF-kB reporter, CHO-PD-L1, with HSA, 24h [1]: 663%

B3: PRO1058 (other)
chain: DIQMTQSPSSLSASVGDRVTITCQASQSINDYLAWYQQKPGKAPKLLIYKASTLASGVPSRFSGSGSGTDFTLTISSLQPEDFATYYCQQGYIITDIDNVFGTGTKVTVLGGGGGSQVQLQESGPGLVKPSETLSLTCKVSGFSFNNDYDMCWIRQPPGKGLEWIGCIDTGDGSTYYASWAKGRVTISVDSSKNQFSLKLSSVTAADTAVYYCAREAASSSGYGMGYFDLWGQGTLVTVSSGGGGSGGGGSGGGGSGGGGSIQMTQSPSSLSASVGDRVTITCQSSQSVYDNNWLAWYQQKPGKAPKLLIYRASNLASGVPSRFSGSGSGTDFTLTISSLQPEDFATYYCQGTYLSSNWYWAFGTGTKVTVLGGGGGSQVQLQESGPGLVKPSETLSLTCKVSGFSFSSGYDMCWIRQPPGKGLEWIGCVVAGSVDITYYASWAKGRVTISVDSSKNQFSLKLSSVTAADTAVYYCARKDAYSDAFNLWGQGTLVTVSSGGGGSGGGGSVVMTQSPSSLSASVGDRVTITCQASQIISSRSAWYQQKPGQPPKLLIYQASKLASGVPSRFSGSGSGTDFTLTISSLQPEDFATYYCQCTYIDSNFGAFGGGTKLTVLGGGGGSGGGGSGGGGSGGGGSEVQLVESGGGLVQPGGSLRLSCAASGFSFSSSYWICWVRQAPGKGLEWVGCVFTGDGTTYYASWAKGRFTISRDNSKNTVYLQMNSLRAEDTATYFCARPVSVYYYGMDLWGQGTLVTVSS
notes: also called 38_27_C05 sc01 scDb-i/33-03-G02 sc01 scDb-o/mxr HSA (23-13-A01-sc03,sk17sh4)
EC50 in ng/ml, NFkB-Luciferase reporter, PD-L1 expressing CHO cells (6h), + HSA [2]: 70.9 ng/mL
EC50 in ng/ml, NFkB-Luciferase reporter, PD-L1 expressing CHO cells (24h), + HSA [3]: 121 ng/mL
max. activation (%), NF-kB reporter, CHO-PD-L1, with HSA, 24h [1]: 36.2%

B4: PRO1059 (bispecific antibody, human IgG1, kappa, L234A L235A)
light: DIQMTQSPSSLSASVGDRVTITCQASQSINDYLAWYQQKPGKAPKLLIYKASTLASGVPSRFSGSGSGTDFTLTISSLQPEDFATYYCQQGYIITDIDNVFGTGTKVTVLGTVAAPSVFIFPPSDEQLKSGTASVVCLLNNFYPREAKVQWKVDNALQSGNSQESVTEQDSKDSTYSLSSTLTLSKADYEKHKVYACEVTHQGLSSPVTKSFNRGECGGGGSGGGGSIQMTQSPSSLSASVGDRVTITCQASQSINNVLAWYQQKPGKAPKLLIYRASTLASGVPSRFSGSGSGTDFTLTISSLQPEDFATYYCQSSYGNYGDFGTGTKVTVLGGGGGSGGGGSGGGGSGGGGSQVQLQESGPGLVKPSETLSLTCKVSGFSFSNSYWICWIRQPPGKGLEWIGCTFVGSSDSTYYANWAKGRVTISVDSSKNQFSLKLSSVTAADTAVYYCARHPSDAVYGYANNLWGQGTLVTVSS
heavy: QVQLQESGPGLVKPSETLSLTCKVSGFSFSSGYDMCWIRQPPGKGLEWIGCVVAGSVDITYYASWAKGRVTISVDSSKNQFSLKLSSVTAADTAVYYCARKDAYSDAFNLWGQGTLVTVSSASTKGPSVFPLAPSSKSTSGGTAALGCLVKDYFPEPVTVSWNSGALTSGVHTFPAVLQSSGLYSLSSVVTVPSSSLGTQTYICNVNHKPSNTKVDKRVEPKSCDKTHTCPPCPAPEAAGGPSVFLFPPKPKDTLMISRTPEVTCVVVDVSHEDPEVKFNWYVDGVEVHNAKTKPREEQYNSTYRVVSVLTVLHQDWLNGKEYKCKVSNKALGAPIEKTISKAKGQPREPQVYTLPPSREEMTKNQVSLTCLVKGFYPSDIAVEWESNGQPENNYKTTPPVLDSDGSFFLYSKLTVDKSRWQQGNVFSCSVMHEALHNHYTQKSLSLSPGK
IC50 (ng/ml), NF-kB reporter, CHO-PD-L1, 24h [1]: 289 ng/mL

B5: PRO951 (bispecific antibody)
chain: DIQMTQSPSSLSASVGDRVTITCQASQSINDYLAWYQQKPGKAPKLLIYKASTLASGVPSRFSGSGSGTDFTLTISSLQPEDFATYYCQQGYIITDIDNVFGTGTKVTVLGGGGGSEVQLVESGGGLVQPGGSLRLSCAASGFSFNNDYDMCWVRQAPGKGLEWIGCIDTGDGSTYYASWAKGRFTISRDNSKNTVYLQMNSLRAEDTAVYYCAREAASSSGYGMGYFDLWGQGTLVTVSSGGGGSGGGGSGGGGSGGGGSIQMTQSPSSLSASVGDRVTITCQSSQSVYDNNWLAWYQQKPGKAPKLLIYRASNLASGVPSRFSGSGSGTDFTLTISSLQPEDFATYYCQGTYLSSNWYWAFGTGTKVTVLGGGGGSQVQLQESGPGLVKPSETLSLTCKVSGFSFSSGYDMCWIRQPPGKGLEWIGCVVAGSVDITYYASWAKGRVTISVDSSKNQFSLKLSSVTAADTAVYYCARKDAYSDAFNLWGQGTLVTVSS
EC50 in ng/ml, NFkB-Luciferase reporter, CHO-PD-L1 cells [5]: 33.7 ng/mL
